Measurements taken from patent US20250236878A1 (priority 2019, published 2025).
Where two headings read alike, the source gives them in different places. Peptide text beside a SMILES is read from it.

How the values were obtained:
[1] = test system: kiwi Actinidiae deliciosa 'Hayward' plants; conditions: 29 DAI; foliar application
Protocol: 24-hours after the initial treatments, all plants except for the uninfected controls were sprayed with 1×10^8 cfu/mL PSA-V inoculum using a 5 L hand-held pressurized sprayer aimed at the underside of leaves until thoroughly covered. The uninfected control was sprayed with water alone. Potted plants were then transported to Pukehina and placed in an area with overhead misting for 48 hours to mimic environmental conditions for PSA-V infection, with uninfected control plants separated from infected plants. After 48 hours, a subset of plants was then removed from the misting area and allowed to briefly dry before application of Serine Protease 2 (SEQ ID NO: 795). After the final treatments, all plants were moved to their final outdoor trial site, randomized positions in Pukehina. Average daily temperature at the trial site was 20.75° C. with a total rainfall of 277 mm over 34 days. […] Plants were visually monitored throughout the trial period for PSA-V disease assessments, with the same assessor recording the % of leaf area covered in spots at 6 days after inoculation (6 DAI), 16 DAI, 23 DAI and 29 DAI. Additionally, each plant was assessed for treatment phytotoxicity effects at 29 DAI on a scale of 0-10, with 0=no leaf phytotoxicity and 10=very severe leaf phytotoxicity symptoms. […] P-values were calculated for each treatment vs. the untreated control.

[2] = pH 6.9
Protocol: For data in Table 54 below, an amount of 0.1 g of starch (unbranched α-1,4-linked glucose residues) from Solanum tuberosum was suspended in 1.0 mL room temperature 10× Phosphate Buffered Saline (PBS), pH 6.9 and then dissolved into 9 mL boiling water. For Treatments A-D, 0.165 nL of enzyme preparation diluted in 1× PBS, pH 6.9 were added, in triplicate, to a 96-well plate. For Treatments E-G, 9.4 nL of enzyme preparation in 1× PBS, pH 6.9 were added, in triplicate, to a 96-well plate.

[3] = test system: Citrus trees infected with Candidatus Liberibacter asiaticus; conditions: 'Ruby Red' grapefruit, trunk injection
Text: Described herein is a method for promoting tree recovery from the symptoms of Citrus Greening Disease or HLB using a multi-pronged approach to 1) alert the plant to the presence of pathogenic bacteria using trunk injection or foliar application of a Flg22 peptide from Bacillus thuringiensis, 2) clear excess callose and starch polymers from the plant vasculature through injection of callose- and starch-degrading enzymes, and/or the callose synthesis inhibitor 2-DDG, and 3) improve plant health through delivery of the sulfur-containing amino acid L-cysteine.
Treatment trees included 10-year old ‘Ruby Red’ grapefruit (Citrus x paradisi) located at a commercial grove orchard located in central Florida (Okeechobee County) and 8 to 10 year old ‘Valencia’ orange (Citrus sinesis) trees located at two sites, a grove in Eustis, Florida (Lake County) and a grove in central Florida (Okeechobee County). […] Fruit were harvested and assessed according the same metrics of total “Fruit Count” and “Fruit Weight”, “Average Weight per Fruit”, “Average Fruit Diameter” and “% Drop” as described in Example 1, “Acid-corrected ^oBrix (^oBrixc)”, “Citric Acid %”, “% Juice Content” as described as in Example 2, with the exception that one set of grapefruit consisted of 25 total fruit, sampled as 5 fruit each from 5 trees. […]

[4] = test system: Citrus trees infected with Candidatus Liberibacter asiaticus; conditions: 'Ruby Red' grapefruit
Text: For juice quality analysis, one set of oranges consisted of 10 total fruit, each corresponding to a sampling from 5 trees of the same experimental treatment. The set of 10 oranges were weighed (gram; g) and then juiced together. Oranges were imaged as a set of whole fruit and then cut in half so the pedicel and the style were a part of separate halves and the interior half of the fruit resembled wedges in a wheel. After imaging the halved fruit, each half was juiced until no endocarp remained. The juice from all the fruit in the set was strained to remove bulk pulp and then combined and measured for juice volume (mL) and mass (g). Mean juice volume per fruit (mL), mean fruit weight (g), and % juice content (g juice in set/g comprising the whole fruit in set) were calculated and recorded. The bulk juice was strained through a mesh strainer and samples were retained for Brix and acidity analysis (1 mL and 5 mL, respectively).
Acid-corrected ^oBrix (^oBrixc) values of juice were obtained from the juiced (squeezed) fruit following the USDA minimum standards for Brix laboratory analytical methods. A MA871 Refractometer (Milwaukee Instruments) was used for Brix analysis. For Brix analysis, 1 mL of the strained juice from each set was centrifuged at 13,300×g for 30 seconds to pellet pulp. 100 μL of distilled water was used to zero the instrument, and 100 μL each of 12.5% Brix and 25% Brix standards made with sucrose (Acros Organics, Belgium) were used to verify calibration between runs. A 100 μL volume of each sample was read for Brix content and recorded. Temperature was recorded using the output in the Brix analysis meter. (JBT FoodTech Laboratory Manual, “Procedures for Analysis of Citrus Products, Sixth Edition). For determination of citric acid content (% CA), 5 mL of strained juice was diluted 10-fold in distilled water. The diluted sample was titrated to pH 8.10 using a HI 84532 Titratable Acidity Minititrator & pH Meter for Fruit Juice (Hanna Instruments). […] The standard pH curve was set with provided standards at pH 4.01, pH 7.01, and pH 8.20. […] After collecting Brix values and acidity data, the fruit brix to acidity ratio was calculated (Brix:CA). Increased Brix and Brix:CA values are indicative of a higher quality fruit with increased sugar content relative to acid content.
Treatment trees included 10-year old ‘Ruby Red’ grapefruit (Citrus x paradisi) located at a commercial grove orchard located in central Florida (Okeechobee County) and 8 to 10 year old ‘Valencia’ orange (Citrus sinesis) trees located at two sites, a grove in Eustis, Florida (Lake County) and a grove in central Florida (Okeechobee County). […] To assess the effects of citrus recovery treatments on fruit yield and quality, ‘Ruby Red’ grapefruit were harvested 20 months post-treatment, and the ‘Valencia’ oranges (Okeechobee and Lake Counties) were harvested approximately 22 months post-treatment. Fruit were harvested and assessed according the same metrics of total “Fruit Count” and “Fruit Weight”, “Average Weight per Fruit”, “Average Fruit Diameter” and “% Drop” as described in Example 1, “Acid-corrected ^oBrix (^oBrixc)”, “Citric Acid %”, “% Juice Content” as described as in Example 2, with the exception that one set of grapefruit consisted of 25 total fruit, sampled as 5 fruit each from 5 trees. One set of 25 grapefruit were assessed per replicated treatment block, for a total of two sets per treatment.

[5] = test system: corn plants (hybrids DKC 60-88 RIB, DKC 58-08 RIB and DKC 64-35 RIB); conditions: foliar V4-V7, 12 locations
Protocol: Corn plants were grown as described in Example 6.
ACC Deaminase (Composition 3) was formulated at 8 Fl. oz/Ac (584.2 mL/Hectare, Ha) use rate.

[6] = test system: corn plants, hybrid P1197; conditions: in furrow with 10-34-0 base fertilizer, 4 locations
Protocol: Yield impact of combination in furrow treatments was assessed on corn plants, hybrid P1197.
Replicated trials were conducted at 4 locations throughout the US Midwest (KS, MO, IL). […] A base treatment of 10-34-0 fertilizer at the rate of 2.5 gallons per acre was applied along with all treatments, including the control treatment. Herbicides were applied for weed control. Four-row plots, 39 feet (11.9 meters) long were planted at all locations.

[7] = test system: HLB-infected Ruby Red Grapefruit trees; assay: Citrus trials of Examples 20-24: fruit yield, fruit size, fruit count and fruit drop, grapefruit; assay type: in vivo, Citrus paradisi
Protocol: All fruit with a diameter greater than or equal to 1.6 inches (40 mm) were hand-picked and collected for each tree. The total “Fruit Weight” (in kilograms) per individual tree was measured and recorded. Trees with total fruit weights less than or greater than 2 standard deviations (2STDEV) from the trial mean were considered to be outliers and removed from the dataset. Fruit size was assessed as the “Average Weight per Fruit” in grams (weight of 20 random fruit per tree, divided by 20) and “Average Fruit Diameter” in millimeters, as described in Example 1. The “Average Fruit Count” per tree was assessed as the total “Fruit Weight” divided by “Average Weight per Fruit”. “Fruit Drop” was assessed as for Example 1. Fruit quality was assessed as for Example 2, with the exception that one set of fruit consisted for 15 total fruit, each corresponding to a sampling of 3 fruit from 5 trees of the same experimental treatment block. Each set of 15 fruit were weighed (gram; g) and then juiced together. Average yield, % fruit drop, fruit size, and juice quality for each of the tested compositions are described in Examples 20-24.

[8] = 37° C.
Protocol: CM-pachyman was carboxymethylated with chloroacetic acid to increase solubility in aqueous solutions.
An amount of 0.125 g of CM-pachyman from Poria cocos was dissolved in 23.5 mL water, at 90° C., and diluted to 25 mL in 0.5 M sodium citrate buffer, pH 4.9.

Compound: CC[C@H](C)[C@H](NC(=O)[C@H](CCC(N)=O)NC(=O)[C@H](CC(C)C)NC(=O)CNC(=O)[C@H](C)NC(=O)[C@H](C)NC(=O)[C@H](CC(=O)O)NC(=O)[C@H](CC(=O)O)NC(=O)[C@H](CCCCN)NC(=O)[C@H](C)NC(=O)[C@H](CO)NC(=O)[C@H](CC(N)=O)NC(=O)[C@@H](NC(=O)[C@H](CCCCN)NC(=O)[C@H](CC(C)C)NC(=O)CNC(=O)[C@H](CO)NC(=O)[C@H](CO)NC(=O)[C@H](CC(C)C)NC(=O)[C@H](CCCNC(=N)N)NC(=O)[C@@H](N)[C@@H](C)O)[C@@H](C)CC)C(=O)N[C@@H](C)C(=O)O [Flg22-PSA] (H-TRLSSGLKINSAKDDAAGLQIA-OH)
- Average Phytotoxicity Score (0-10) [1]: 0.1 (±0.3)

Compound: N[C@@H](CS)C(=O)O [L-Cysteine, L-cysteine]
- A540 60 min post-treatment (n = 3): 0.373
- glucanase response compared with β-1,3-D-glucanase alone (Treatment A) (pH 4.9): did not show additional glucanase activity
- A540 10 min post-treatment [2]: 0.207
- amylase activity response on starch [2]: did not show significant amylase activity

Compound: Bt.4Q7Flg22 (SEQ ID NO: 226) (DRLSSGKRINSASDDAAGLAIA; listed as Bacillus thuringiensis)
- Average Yield (kg per tree) ([3]; harvested 20 months post-treatment, Bt.4Q7Flg22 0.33 mg/tree, endoglucanase 2600 U/tree, mixture 660 U + 660 U + 0.27 mg/tree): 37.2 kg per tree
- Average Yield (kg per tree) Relative to Untreated ([3]; untreated = 34.6): (108%)
- Average Fruit Diameter (mm) ([4]; trunk injection): 85.03 mm
- Average Juice Volume per fruit ([4]; trunk injection): 163.6 mL
- Brix:CA Ratio ([4]; untreated = 8.90): 9.24
- Average Juice Content (%) ([4]; untreated = 59%): 68%
- Average Fruit Diameter Relative to Untreated ([4]; untreated = 82.17): (103%)
- Average Juice Volume per fruit Relative to Untreated ([4]; untreated = 134.9): (121%)

Compound: DRLSSGKRINSASDDAAGLAIA (listed as Bacillus thuringiensis) [Bt.4Q7Flg22, Flg22 flagellin-associated polypeptide from Bacillus thuringiensis strain 4Q7]
- average yield increase over control [5]: +4.37 Bu/Ac
- average yield increase over the control [6]: +1.39 Bu/Ac
- count box of fruit ([7]; trunk injection): 56 count
- increased yield relative to untreated control ([7]; trunk injection (Spring 2019) and foliar application (Fall 2019)): 39.7%
- increased yield relative to the untreated control ([7]; trunk injection alone, Spring 2019 (Table 62)): 14.4%

Compound: β-1,3-D-glucanase (CsPr2) from Citrus sinensis (SEQ ID NO: 770)
- A540 30 min post-treatment (37° C.): 0.394

Compound: β-1,3-D-glucanase (LamA1) from Paenibacillus sp. CCRC17245 (SEQ ID NO: 767)
- A540 30 min post-treatment [8]: 0.402
